Results reported in patent EP2500357A2 (Abbott Laboratories, dated 2012).

T1: human IL-12 (human, UniProt P29459 23-219; P29460 23-328)
T1 sequence (looked up) 1: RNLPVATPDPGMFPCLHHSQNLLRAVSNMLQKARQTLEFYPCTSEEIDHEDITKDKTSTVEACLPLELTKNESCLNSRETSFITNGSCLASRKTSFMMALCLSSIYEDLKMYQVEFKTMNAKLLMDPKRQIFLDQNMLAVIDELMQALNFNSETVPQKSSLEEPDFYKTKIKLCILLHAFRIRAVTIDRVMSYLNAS
T1 sequence (looked up) 2: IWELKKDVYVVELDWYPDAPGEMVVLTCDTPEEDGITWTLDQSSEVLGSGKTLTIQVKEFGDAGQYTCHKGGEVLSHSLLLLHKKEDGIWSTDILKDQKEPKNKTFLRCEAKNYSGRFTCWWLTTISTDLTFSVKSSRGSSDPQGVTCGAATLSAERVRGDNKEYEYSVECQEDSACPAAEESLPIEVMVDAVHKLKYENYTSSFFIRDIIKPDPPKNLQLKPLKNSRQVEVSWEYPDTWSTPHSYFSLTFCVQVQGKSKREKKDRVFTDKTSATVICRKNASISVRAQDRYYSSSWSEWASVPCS

B1: DVD1218SL (anti-IL12/IL18 DVD-Ig) (bispecific antibody, human IgG1, kappa)
heavy: QVQLVESGGGVVQPGRSLRLSCAASGFTFSSYGMHWVRQAPGKGLEWVAFIRYDGSNKYYADSVKGRFTISRDNSKNTLYLQMNSLRAEDTAVYYCKTHGSHDNWGQGTMVTVSSASTKGPEVQLVQSGTEVKKPGESLKISCKGSGYTVTSYWIGWVRQMPGKGLEWMGFIYPGDSETRYSPTFQGQVTISADKSFNTAFLQWSSLKASDTAMYYCARVGSGWYPYTFDIWGQGTMVTVSS[human IgG1 constant region left out]
light: QSVLTQPPSVSGAPGQRVTISCSGSRSNIGSNTVKWYQQLPGTAPKLLIYYNDQRPSGVPDRFSGSKSGTSASLAITGLQAEDEADYYCQSYDRYTHPALLFGTGTKVTVLGQPKAAPEIVMTQSPATLSVSPGERATLSCRASESISSNLAWYQQKPGQAPRLFIYTASTRATDIPARFSGSGSGTEFTLTISSLQSEDFAVYYCQQYNNWPSITFGQGTRLEIKRTVAAPSVFIFPPSDEQLKSGTASVVCLLNNFYPREAKVQWKVDNALQSGNSQESVTEQDSKDSTYSLSSTLTLSKADYEKHKVYACEVTHQGLSSPVTKSFNRGEC
B2: DVD1218LL (anti-IL12/IL18 DVD-Ig) (bispecific antibody, human IgG1, kappa, lambda)
heavy: QVQLVESGGGVVQPGRSLRLSCAASGFTFSSYGMHWVRQAPGKGLEWVAFIRYDGSNKYYADSVKGRFTISRDNSKNTLYLQMNSLRAEDTAVYYCKTHGSHDNWGQGTMVTVSSASTKGPSVFPLAPEVQLVQSGTEVKKPGESLKISCKGSGYTVTSYWIGWVRQMPGKGLEWMGFIYPGDSETRYSPTFQGQVTISADKSFNTAFLQWSSLKASDTAMYYCARVGSGWYPYTFDIWGQGTMVTVSS[human IgG1 constant region left out]
light: QSVLTQPPSVSGAPGQRVTISCSGSRSNIGSNTVKWYQQLPGTAPKLLIYYNDQRPSGVPDRFSGSKSGTSASLAITGLQAEDEADYYCQSYDRYTHPALLFGTGTKVTVLGQPKAAPSVTLFPPEIVMTQSPATLSVSPGERATLSCRASESISSNLAWYQQKPGQAPRLFIYTASTRATDIPARFSGSGSGTEFTLTISSLQSEDFAVYYCQQYNNWPSITFGQGTRLEIKRTVAAPSVFIFPPSDEQLKSGTASVVCLLNNFYPREAKVQWKVDNALQSGNSQESVTEQDSKDSTYSLSSTLTLSKADYEKHKVYACEVTHQGLSSPVTKSFNRGEC
B3: 1D4.1-ABT325 DVD-Ig (bispecific antibody, human IgG1, kappa)
heavy: EVTLRESGPALVKPTQTLTLTCTFSGFSLSKSVMGVSWIRQPPGKALEWLAHIYWDDDKYYNPSLKSRLTISKDTSKNQVVLTMTNMDPVDTATYYCARRGIRSAMDYWGQGTTVTVSSASTKGPEVQLVQSGTEVKKPGESLKISCKGSGYTVTSYWIGWVRQMPGKGLEWMGFIYPGDSETRYSPTFQGQVTISADKSFNTAFLQWSSLKASDTAMYYCARVGSGWYPYTFDIWGQGTMVTVSS[human IgG1 constant region left out]
light: DIVMTQSPDSLAVSLGERATINCKASQSVSNDVAWYQQKPGQPPKLLIYYASNRYTGVPDRFSGSGSGTDFTLTISSLQAEDVAVYYCQQDYNSPWTFGGGTKVEIKRTVAAPEIVMTQSPATLSVSPGERATLSCRASESISSNLAWYQQKPGQAPRLFIYTASTRATDIPARFSGSGSGTEFTLTISSLQSEDFAVYYCQQYNNWPSITFGQGTRLEIKRTVAAPSVFIFPPSDEQLKSGTASVVCLLNNFYPREAKVQWKVDNALQSGNSQESVTEQDSKDSTYSLSSTLTLSKADYEKHKVYACEVTHQGLSSPVTKSFNRGEC

Legend:
Assay in all cases: cell-based or functional assay
human IL-18 [1] = molecular target: T2, human IL-18 (human, UniProt Q14116 37-193)
human IL-12 [2] = molecular target: T1, human IL-12
human IL-18 [3] = molecular target: T2, human IL-18; remark: listed apart in the source
human IL-12 [4] = molecular target: T1, human IL-12; remark: listed apart in the source

Binder	Potency (IC50), KG-1 bioassay (IFN-γ production) (human IL-18 [1]) [nM]	Potency (IC50), IL-12-induced IFN-γ production by PHA blast cells (human IL-12 [2]) [nM]	Potency (IC50), KG-1 bioassay (IL-18) (human IL-18 [3]) [nM]	Potency (IC50), PBMC assay (IL-12) (human IL-12 [4]) [nM]
B1	0.18	0.00693	–	–
B2	0.18	0.00304	–	–
B3	–	–	0.12	0.217
